Data published in the supplement of paper PMC11417369.
The other results are listed elsewhere or left out.

Tested on: PfAP2-HC AP2 domain (GST-tagged)
Assay: gcPBM binding intensity (ln(normalized median fluorescence intensity)); higher = stronger DNA binding
Outline: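 Binding of GST-tagged P. falciparum DNA-binding domains, expressed in E. coli and used at about 25 μg on average, was carried out for 1 h in 1× PBS containing 1% milk, 0.2 mg/ml BSA, 0.5% salmon testes DNA and 0.03% Triton X-100. The target was an Agilent 4 × 180k array of primer-extended double-stranded 36-bp intergenic genomic probes plus negative controls, read with Alexa488 anti-GST antibody at 488 nm. Binding intensity is the highest Masliner-normalised natural-log median intensity across replicate spots of either probe orientation.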

Sequence | gcPBM binding intensity (ln)
TGGAAAATAAAGTACGCACACAAAAATTCTCTTCAT [CACACA_site2327] | 10.2
TTCAAACATATTAATTGTACATACAACAAAACCATG [XGTACX_site5149] | 9.58
AATATATTTTAGAGTTTTATATATTTTATGCATATA [GTGCAC_negctrl_site710] | 9.61
ATATTATTTTATGCTACACACATTTTCTCTTATAAA [CACACA_site943] | 9.89
GGAATTTTTATTCGAAGTACTGTTGTGAGTAATAAA [XGTACX_site8599] | 9.53
TAAATGTTAAAATTCACACAAATATGTGCGGAATAT [CACACA_site5055] | 9.61
TTTGACTAAATTAAATATTAAAGTATGGATTATTCT [CACACA_negctrl_site833] | 9.4
ACCCATTTGATAATAATGCACACCACATATATTTAT [CACACA_site3061] | 10.1
TGCAAGGAACAACACACACACACATAAATGTATATA [CACACA_site8149] | 11.4
ATATATAATATATACACACACATGTATATATAAATA [CACACA_site1968] | 9.95
AAAAAAAAAAAACACACACACACATTCAATATAAAA [CACACA_site40] | 10.4
ATATGTATTTATGTATTTATGTATTTTTATATTTTT [CACACA_negctrl_site595] | 9.85
AATACGCATTTTAGTACACACTTAAAAAGTTATTTT [CACACA_site7401] | 9.67
AATTATATTAATTCTTCATTACATTTTAAAATATTA [XGTACX_negctrl_site510] | 9.45
TTCGTTATATTTTGATGTACTGATTCATATATATAT [XGTACX_site1835] | 9.82
TGCTATTATTTATGTACACACCAATTTATTTATAAT [CACACA_site6029] | 9.89
TTATAATATAAAAATAAATAAATAAATAAATAAATA [CACACA_negctrl_site1587] | 9.5
AGAGAATATTTCCACACATGCAAATGTTATATGTAA [TGCATGCA_site282] | 9.61
ATTGATTTTTAATATACACACATAAGGACCACAAAA [CACACA_site4344] | 10.2
TATACATATGTATGCACACATACATACACATAGAAT [CACACA_site3480] | 9.94
TATATTATTTAAAAAGTGCAGTTACAAGATGAACCT [GTGCAC_site9641] | 9.46
TAATATTTATTCTATTGTACATAAAATATATATATA [XGTACX_site7132] | 9.47

Sequence | gcPBM binding intensity (ln)
GGAAAGACATTACACAGTACCCAGGAAATCTACGGA [XGTACX_site2002] | 9.8
TCAACATTTAAAAATAGTACTCATAAACCTTTCGAA [XGTACX_site4111] | 9.42
ATTATATATGTATAAATATGCTATATATATATATAT [GTGCAC_negctrl_site430] | 9.65
ATAAATAAAAAACACACACACACACCCAAAAAAAAA [CACACA_site2624] | 10.7
TATCTCTCTTTCTGCTGTACATAAAAATTATATAAT [XGTACX_site5961] | 9.61
AACATATTTTTAAATACACACACATAAAAAAAAAAA [CACACA_site8279] | 10
TCTACAAGGCTTGATCGTACAATTTGAATGTATTTG [XGTACX_site7698] | 9.52
CTCAACATATACGTAACACACATATATATATATATA [CACACA_site3838] | 9.75
AAAATAACGAGTCAAACACACATATATATATATATA [CACACA_site2039] | 9.75
AGCATAAACAATTTTTGAAAAAATATACACTCATAG [CACACA_negctrl_site890] | 9.56
TATGCAAGGAACCACACACACACACCCAAATGTATA [CACACA_site750] | 10.5
AGATTATATATATGTATATATGTATATATTTATATA [CACACA_negctrl_site1797] | 9.53
ATTATAATAGTTAAATGTACACACTAACTACATGGA [XGTACX_site6918] | 9.76
AATTAAAAATTCAAGTGTACTTTTATATTATTATAC [XGTACX_site4106] | 9.6
ATTCGGATATATATCACACATAACTTTAATAATATA [CACACA_site5720] | 9.58
TAAATAGCCAAACGCACACCCACAAAAAAAAAAAAA [CACACA_site1554] | 10.3
TATATATAATATACATGTACAAATGTATTTAAAAAT [XGTACX_site6090] | 9.72
AGAAAATACACGCATACACACACACCCACCCACATA [CACACA_site8115] | 11.3
CAAAAAAAGAAAGCTACACACATTTATGTGCTATAT [CACACA_site2777] | 9.88
AAAAAAAATAAAAATAGTACTCAAAAAATTATGAAT [XGTACX_site3073] | 9.68
ATATTAATTTCTTATGCATGTTCTACCAAATTGTAT [TGCATGCA_site38] | 9.75
GATATGATATGATATGCATGTAACAAATTTTTTTAA [TGCATGCA_site268] | 9.49

Sequence | gcPBM binding intensity (ln)
AAAAAAAAATATATATATATATATATATTTATGTAT [GTGCAC_negctrl_site483] | 9.5
TTCTTCAATAATAAGTGTACATATGCATACATTATA [XGTACX_site1502] | 9.78
ATAATAAAATAAGAAGCACACAAATATTATATATAA [CACACA_site9319] | 9.94
AATTAAAAAATTTATGCACACTTTAAAAAAAAAAAA [CACACA_site5962] | 9.54
ATCAAATTTGGACATGCATGTGTGTGTAAAACCATG [TGCATGCA_site309] | 10.8
ATATTAGTCGAATGATGTACACACATACAAAACATT [XGTACX_site8613] | 10.2
AATTATTCTCTTTTCATTTGAACAATATGCTTAAAA [CACACA_negctrl_site995] | 9.59
AATATTTTTTAAATGTGTACATAGGTATAGCACACA [XGTACX_site8690] | 9.7
AGTCATATAAATAGTAGTACTGTGTGTGAAGAAAAA [XGTACX_site5056] | 10.2
ACACATTCGAAAAATTGTACATATATAACAGAATAT [XGTACX_site7106] | 9.81
ACAAATATGAGAAATTGTACATATAATAAAATAGTA [XGTACX_site2573] | 9.72
GACTGCACTTTAAGCACACAAATATATTTTTTTTAT [CACACA_site1249] | 9.81
TTCTATTATGTGACTCAATTCTTCATGGGTGTATAA [TGCATGCA_negctrl_site140] | 9.61
AATGTATTTATTTTTTGTACATATCGTGTGTGTATT [XGTACX_site1009] | 10.5
TTTTTTTTTAAATATACACACACATTTATACATATA [CACACA_site9122] | 9.94
TTTGGAATATAATATTGTACATATTATATATATATA [XGTACX_site3187] | 9.55
CCTCATCCACTATGCACACAAAAAAGAAATACACTA [CACACA_site3422] | 10.1
TTTTTTTTTTTTTTAACACACATATATATATTTTTC [CACACA_site1922] | 9.62
TTCTCAAATATAATAAAATTATAAAGTGACCTAACT [GTGCAC_negctrl_site493] | 9.5
TAATGGATTATACGTGCACACATATATACAAATAAA [CACACA_site8116] | 9.81
TTATTTATTTTTATATGTACACAAAAAAAAAAAAAA [XGTACX_site1459] | 9.11
AATATATATAACGTTGGTACACAAAAATTATTAAAT [XGTACX_site8572] | 9.89

Sequence | gcPBM binding intensity (ln)
AAAAAAAACGGACACACACACATAAATATATATAAA [CACACA_site4260] | 11.3
CACACCCACCAACACACACACAAAAAAAAAAAGAAA [CACACA_site500] | 10.4
ATATTTTATTTTAATACACACAAGTTATATAATCAC [CACACA_site780] | 9.75
AAAAGGTATAGAAACACACACACGTGAATATAGTTT [CACACA_site1905] | 10.5
TACAAATTTATATAAAGTACAAAAAATAATAAAAAT [XGTACX_site7355] | 9.77
AAAAAAAAAAAAAGTGCACACATAAAAATATGATCT [CACACA_site8090] | 9.9
ACATATGTTTTATGTAGTACTTATTTATTATTATAT [XGTACX_site7528] | 9.79
ATGAATAAATAGGTCACACACAAATATATATAAATA [CACACA_site2416] | 10.6
TTGTTCGATATATGCACACAGTTTTGTTATTTTTCC [CACACA_site4972] | 9.98
CACTACACTGTTAATAGTACATATATTTAAAAAAAA [XGTACX_site7371] | 9.61
AGAAAAAAAAAAAGTACACACATATAATATATATAT [CACACA_site2973] | 10
AGTTAATGAATAGGCACACATATATCTGTATAAATA [CACACA_site4448] | 9.83
TCAAATAATAAGTATGCATGCTATATTTATATATAC [TGCATGCA_site920] | 9.62
TACATTTTACTTGTTACACACATATAAAATTAACCA [CACACA_site2922] | 9.74
AAACGTACATAATACACACACATGTATACCTATAAA [CACACA_site7051] | 10.1
ATAAAAAATAAAATAAATAAAAAATATTTACCCTTA [TGCATGCA_negctrl_site396] | 9.48
TGTAGAAATGGGTGCACACACATATAAAATCTATAT [CACACA_site7224] | 10
TAAAAAAATAAATATACACACATATATATATATATA [CACACA_site1089] | 9.89
GGATTTATTATATATACACACATACAGATATATATA [CACACA_site5222] | 9.78
TCATTAAAAACTAAAAGTACTCAATATTATGAACAT [XGTACX_site7807] | 9.38
CATATATATTTGTTCACACACACACTAGAAAAAAAA [CACACA_site5380] | 10.2
ACATCATATTAAGAAAGTACAAAAAGAGAACATATA [XGTACX_site1268] | 9.91
